Source: PubChem BioAssay AID662 (National Center for Advancing Translational Sciences (NCATS), 2007)
Among all 71,000 compounds or so, about 1,800 (2.5%) were called active. The inconclusive results got no clear call from the source; some entries with a clear call stand among them for comparison. The call rests on the fitted dose curve; in most records, active means well fitted activation curve with a large enough effect in the signal ratio, with a control signal flat (not every such curve was filed as active); inconclusive means small, poorly fitted or top-dose-only effect, or effect the other way, or a change in a side signal; inactive means flat fitted curve, though single readings scatter; the % refers to the signal ratio. Potencies of inconclusive entries are doubtful fits and often do not repeat.

Assay: Cell signaling CRE-BLA (Fsk stim); on activity change, negative = inhibition: % of control where 0% means no effect
Details: CHO CRE-bla reporter (cAMP response element driving beta-lactamase), forskolin EC10, beta-lactamase ratio; activity change, negative = inhibition: at 38.2 µM (top of the series) unless noted
Procedure, shortened: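 AC50 values, positive or negative, reflect shifts in EC10 NKH 477-induced CRE-bla reporter activity in CHO cells. Incubation lasted 3 h at 37 °C before CCF4 substrate (2 h, room temperature) and ratiometric 460/530 nm reading.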
Potency means the concentration at half of the fitted maximal effect; tags describe the fitted curve by direction and shape.

SMILES	activity change, negative = inhibition	Potency
Cc1cccc(NC(=O)Cn2cnc3c(cnn3-c3ccc(F)cc3)c2=O)c1C	inactive: 12%	
CC(=O)C(C)Oc1ccc2c3c(c(=O)oc2c1C)CCCC3 (stereo not drawn)		inconclusive: 7.94 µM [rising, partial curve]
CC(NC(=O)c1cccs1)C(c1cccs1)N1CCN(c2ccccc2)CC1 (stereo not drawn)	inconclusive: 11.8%	
CCOC(=O)c1c(-c2cccs2)csc1NC(=O)CSc1ncn[nH]1	inactive: 12.2%	
O=c1c(O)c(-c2ccccc2)oc2cc(O)cc(O)c12		inconclusive: 31.6 µM [rising, single point]
Cc1cccc(CNc2nc(-c3cccnc3)nc3ccccc23)c1		inconclusive: 2 µM [rising, single point]
Cc1ccnc2c(N3C(=O)C4C5C=CC(C5)C4C3=O)cccc12 (stereo not drawn)	inconclusive: 1.17% [at 7.6 µM]	
CC(=O)NCCc1cc2ccc(C)cc2[nH]c1=O	inactive: -14.8%	
CCCC/C=C/C(NC(=O)c1ccc(C(F)(F)F)cc1)c1ccccc1 (stereo not drawn)	inconclusive: 20.2%	
CCOC(=O)c1c(C)nc(-c2ccccc2)nc1NC(=O)C(C)C		inconclusive: 0.2 µM [rising, partial curve, poor fit]
COc1cccc(C(=O)Nc2ncc3c(n2)CC(C)(C)CC3=O)c1	inconclusive: 1.63%	
CCOc1cc(/C=N/n2cnnc2)ccc1OCC(=O)Nc1ccccc1OC		inconclusive: 10 µM [rising, partial curve]
Cc1nc2ccccc2c2oc(C(=O)NCCCN3CCCC3=O)cc12		inconclusive: 10 µM [rising, partial curve]
CS(=O)(=O)Nc1cccc(-c2nccc(Nc3ccc(F)cc3)n2)c1		inconclusive: 15.8 µM [rising, partial curve]
c1ccc(C(Cc2nc(-c3ccncc3)no2)c2ccccc2)cc1	inactive: -2.31%	
c1ccc(OCCSc2nnc3sc4ccccc4n23)cc1	inactive: 28.6%	
CN1C(=O)/C(=C2/C=CC=CN2C)OC1=S	inconclusive: 14.9% [at 7.6 µM]	
N#Cc1ccccc1-c1ccc2ncnc(NCc3cccs3)c2c1		inconclusive: 1 µM [rising, full curve]
O=C(CCCC(=O)N1CCCc2ccccc21)N1CCCc2ccccc21	inactive: -3.2%	
CCOc1cc(C(=O)NC(C)COC)cc(OCC)c1OCC (stereo not drawn)	inconclusive: 14.7% [at 7.6 µM]	
CCCCCCSc1ncc(C#N)c(N)n1		inconclusive: 12.6 µM [rising, partial curve]
COc1ccc(-c2cc(C(F)(F)F)n3nc(C(=O)N4CCCCC4)cc3n2)cc1		active: 12.6 µM
COCCN(C(=O)C1CC1)c1nnc(-c2cccc(C)c2)s1	inactive: 14.1%	
O=C(O)CSCCc1ccccc1	inactive: -9.77% [at 7.6 µM]	
Cc1ccc(NC(=O)N2CCC(O)(c3ccc(Cl)cc3)CC2)cc1	inconclusive: -20.1%	
Cc1nc(NC(=O)CSc2nnnn2Cc2ccccc2)sc1C	inconclusive: 6.96%	
COc1cc(OC)c(NC2=NCCCCC2)cc1Cl	inconclusive: -2.18%	

SMILES	activity change, negative = inhibition	Potency
C=CCn1c(COc2ccc(CC)cc2)nnc1SCC(=O)N(C)C1CCS(=O)(=O)C1 (stereo not drawn)	inconclusive: -5.71%	
CCc1ccc2[nH]c(=O)c(C(c3nnnn3Cc3ccccc3)N3CCOCC3)cc2c1 (stereo not drawn)	inactive: 1.88%	
Cc1ccc(-c2cc(C(=O)NC3=NCCS3)c3cc(Br)ccc3n2)o1	inconclusive: -20.3%	
Cc1cnc(CNc2ncnc3ccc(-c4cccc(C#N)c4)cc23)cn1	inactive: 7.77%	
CCOC(=O)c1cc2cc(-c3c(C(=O)OCC)oc4cc(O)cc(O)c4c3=O)ccc2o1		inconclusive: 25.1 µM [falling, single point]
COC(=O)c1[nH]c2ccccc2c1NC(=O)CCN1CCN(C2CCCCC2)CC1	inconclusive: -6.33%	
O=C(c1ccco1)N1CCCC(c2nc(-c3ccc(S(=O)(=O)NCc4ccccc4)cc3)no2)C1 (stereo not drawn)		inconclusive: 25.1 µM [falling, single point]
COc1ncc2nc(C)c(=O)n(Cc3ccc(F)cc3)c2n1		inconclusive: 12.6 µM [rising, partial curve]
COc1cc(C2NC(=O)c3ccccc3O2)cc(OC)c1OC (stereo not drawn)	inactive: -12.7%	
COc1cccc(Cn2c(=O)cnc3cnc(N4CCOCC4)nc32)c1		inconclusive: 12.6 µM [rising, single point]
COC(=O)c1cc(OC)c(OC)cc1NC(=O)C1CCC(=O)N1S(=O)(=O)c1ccc(C)cc1 (stereo not drawn)		active: 10 µM
CN1C(=O)CSc2ccc(NC(=O)NCc3ccco3)cc21	inconclusive: 22.4%	
CCOc1ccc(OCCN2C(=O)NC3(CCCc4ccccc43)C2=O)cc1 (stereo not drawn)	inconclusive: 17.4%	
CCc1nc(NCc2ccccn2)c2oc3ccccc3c2n1		inconclusive: 5.01 µM [rising, partial curve]
Cc1nc2ccc(N)cc2c(=O)n1Cc1ccc(Cl)cc1		inconclusive: 10 µM [rising, single point]
Cc1nc(N2CCCC2)c2ccsc2n1		inconclusive: 12.6 µM [rising, partial curve]
CCOC(=O)C1CCCN(C(=O)C2CCC(CNS(=O)(=O)c3ccc(NC(C)=O)cc3)CC2)C1 (stereo not drawn)	inactive: -0.776%	
CCCCC(=O)Nc1ccc2oc(-c3cccnc3)nc2c1		inconclusive: 12.6 µM [rising, partial curve]
O=C(COC(=O)c1ccncc1)NCc1ccccc1	inactive: -2.99%	
CCSc1ncnc2c1oc1ccccc12	inconclusive: -8.17%	
CCC1CCCCN1C(=O)c1cc(-c2ccc(Cl)c(Cl)c2)on1 (stereo not drawn)	inconclusive: 6.24%	
Cc1nnc(Sc2nc3ccccc3o2)c2ccccc12		inconclusive: 2.51 µM [falling, full curve]
COc1cc(NC(=O)c2noc3c2CCCC3)c(OC)cc1Cl		inconclusive: 25.1 µM [rising, single point]
O=C(SCc1cccc2ccccc12)c1ccc(Cl)cc1	inactive: -8.49% [at 7.6 µM]	
CCn1c(SCc2cc(=O)[nH]c3ccccc23)nc2c1c(=O)n(C)c(=O)n2C	inconclusive: 26.1%	
CC(Oc1ccc2c(-c3ccccc3)cc(=O)oc2c1)C(=O)O (stereo not drawn)	inactive: -6.13%	
